Measurements from the supplement of paper PMC8728848.
The list shows a part of the results.

Legend:
Test in all cases: glycan array binding signal (z-score within array); higher = stronger binding
Settings in all cases: glycan notation: IUPAC condensed, linker removed
[1] = target: Fuc(a1-2)Gal6S(b1-3)GlcNAc
Method in brief: (§1)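 Arrays were curated from the Consortium for Functional Glycomics database, 3228 in total, and kept only where the protein sequence was available. Binding is expressed as a within-array Z-score. This score was averaged across arrays of the same protein sequence at different concentrations or buffers and across linkers, and negative values can be read as non-binding.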

[2] = target: Fuc(a1-2)Gal6S(b1-3)GlcNAc6S
Method in brief: as §1

Fuc(a1-2)Gal6S(b1-4)Glc = target: Fuc(a1-2)Gal6S(b1-4)Glc
Method in brief: as §1

[3] = target: Fuc(a1-2)Gal6S(b1-4)Glc6S
Method in brief: as §1

Fuc(a1-2)[Gal(a1-3)]Gal = target: Fuc(a1-2)[Gal(a1-3)]Gal
Method in brief: as §1

[4] = target: Fuc(a1-2)[Gal(a1-3)]Gal(b1-3)GalNAc
Method in brief: as §1

[5] = target: Fuc(a1-2)[Gal(a1-3)]Gal(b1-3)GalNAc(b1-3)Gal(a1-4)Gal(b1-4)Glc
Method in brief: as §1

[6] = target: Fuc(a1-2)[Gal(a1-3)]Gal(b1-3)GlcNAc
Method in brief: as §1

[7] = target: Fuc(a1-2)[Gal(a1-3)]Gal(b1-3)GlcNAc(b1-2)Man(a1-3)[Fuc(a1-2)[Gal(a1-3)]Gal(b1-3)GlcNAc(b1-2)Man(a1-6)]Man(b1-4)GlcNAc(b1-4)GlcNAc
Method in brief: as §1

[8] = target: Fuc(a1-2)[Gal(a1-3)]Gal(b1-3)GlcNAc(b1-2)Man(a1-3)[Fuc(a1-2)[Gal(a1-3)]Gal(b1-3)GlcNAc(b1-2)Man(a1-6)]Man(b1-4)GlcNAc(b1-4)[Fuc(a1-6)]GlcNAc
Method in brief: as §1

[9] = target: Fuc(a1-2)[Gal(a1-3)]Gal(b1-3)GlcNAc(b1-3)GalNAc
Method in brief: as §1

[10] = target: Fuc(a1-2)[Gal(a1-3)]Gal(b1-3)GlcNAc(b1-6)GalNAc
Method in brief: as §1

[11] = target: Fuc(a1-2)[Gal(a1-3)]Gal(b1-4)Glc
Method in brief: as §1

[12] = target: Fuc(a1-2)[Gal(a1-3)]Gal(b1-4)GlcNAc
Method in brief: as §1

[13] = target: Fuc(a1-2)[Gal(a1-3)]Gal(b1-4)GlcNAc(b1-2)Man
Method in brief: as §1

[14] = target: Fuc(a1-2)[Gal(a1-3)]Gal(b1-4)GlcNAc(b1-2)Man(a1-3)[Fuc(a1-2)[Gal(a1-3)]Gal(b1-4)GlcNAc(b1-2)Man(a1-6)]Man(b1-4)GlcNAc(b1-4)GlcNAc
Method in brief: as §1

[15] = target: Fuc(a1-2)[Gal(a1-3)]Gal(b1-4)GlcNAc(b1-2)Man(a1-3)[Fuc(a1-2)[Gal(a1-3)]Gal(b1-4)GlcNAc(b1-2)Man(a1-6)]Man(b1-4)GlcNAc(b1-4)[Fuc(a1-6)]GlcNAc
Method in brief: as §1

[16] = target: Fuc(a1-2)[Gal(a1-3)]Gal(b1-4)GlcNAc(b1-3)GalNAc
Method in brief: as §1

[17] = target: Fuc(a1-2)[Gal(a1-3)]Gal(b1-4)GlcNAc(b1-3)[Fuc(a1-2)[Gal(a1-3)]Gal(b1-4)GlcNAc(b1-6)]GalNAc
Method in brief: as §1

[18] = target: Fuc(a1-2)[Gal(a1-3)]Gal(b1-4)GlcNAc(b1-6)GalNAc
Method in brief: as §1

[19] = target: Fuc(a1-2)[Gal(a1-3)]Gal(b1-4)[Fuc(a1-3)]Glc
Method in brief: as §1

[20] = target: Fuc(a1-2)[Gal(a1-3)]Gal(b1-4)[Fuc(a1-3)]GlcNAc
Method in brief: as §1

[21] = target: Fuc(a1-2)[Gal(a1-3)]Gal(b1-4)[Fuc(a1-3)]GlcNAc(b1-3)GalNAc
Method in brief: as §1

[22] = target: Fuc(a1-2)[Gal(a1-4)]Gal(b1-4)GlcNAc
Method in brief: as §1

[23] = target: Fuc(a1-2)[GalNAc(a1-3)]Gal
Method in brief: as §1

[24] = target: Fuc(a1-2)[GalNAc(a1-3)]Gal(b1-3)GalNAc(a1-3)[Fuc(a1-2)]Gal(b1-4)GlcNAc
Method in brief: as §1

[25] = target: Fuc(a1-2)[GalNAc(a1-3)]Gal(b1-3)GalNAc(b1-3)Gal(a1-4)Gal(b1-4)Glc
Method in brief: as §1

[26] = target: Fuc(a1-2)[GalNAc(a1-3)]Gal(b1-3)GlcNAc
Method in brief: as §1

[27] = target: Fuc(a1-2)[GalNAc(a1-3)]Gal(b1-3)GlcNAc(b1-2)Man(a1-3)[Fuc(a1-2)[GalNAc(a1-3)]Gal(b1-3)GlcNAc(b1-2)Man(a1-6)]Man(b1-4)GlcNAc(b1-4)GlcNAc
Method in brief: as §1

[28] = target: Fuc(a1-2)[GalNAc(a1-3)]Gal(b1-3)GlcNAc(b1-2)Man(a1-3)[Fuc(a1-2)[GalNAc(a1-3)]Gal(b1-3)GlcNAc(b1-2)Man(a1-6)]Man(b1-4)GlcNAc(b1-4)[Fuc(a1-6)]GlcNAc
Method in brief: as §1

[29] = target: Fuc(a1-2)[GalNAc(a1-3)]Gal(b1-3)GlcNAc(b1-3)GalNAc
Method in brief: as §1

[30] = target: Fuc(a1-2)[GalNAc(a1-3)]Gal(b1-3)GlcNAc(b1-6)GalNAc
Method in brief: as §1

[31] = target: Fuc(a1-2)[GalNAc(a1-3)]Gal(b1-4)Glc
Method in brief: as §1

[32] = target: Fuc(a1-2)[GalNAc(a1-3)]Gal(b1-4)GlcNAc
Method in brief: as §1

[33] = target: Fuc(a1-2)[GalNAc(a1-3)]Gal(b1-4)GlcNAc(b1-2)Man
Method in brief: as §1

[34] = target: Fuc(a1-2)[GalNAc(a1-3)]Gal(b1-4)GlcNAc(b1-2)Man(a1-3)[Fuc(a1-2)[GalNAc(a1-3)]Gal(b1-4)GlcNAc(b1-2)Man(a1-6)]Man(b1-4)GlcNAc(b1-4)GlcNAc
Method in brief: as §1

[35] = target: Fuc(a1-2)[GalNAc(a1-3)]Gal(b1-4)GlcNAc(b1-2)Man(a1-3)[Fuc(a1-2)[GalNAc(a1-3)]Gal(b1-4)GlcNAc(b1-2)Man(a1-6)]Man(b1-4)GlcNAc(b1-4)[Fuc(a1-6)]GlcNAc
Method in brief: as §1

[36] = target: Fuc(a1-2)[GalNAc(a1-3)]Gal(b1-4)GlcNAc(b1-3)Gal(b1-4)GlcNAc
Method in brief: as §1

[37] = target: Fuc(a1-2)[GalNAc(a1-3)]Gal(b1-4)GlcNAc(b1-3)Gal(b1-4)GlcNAc(b1-3)Gal(b1-4)GlcNAc
Method in brief: as §1

[38] = target: Fuc(a1-2)[GalNAc(a1-3)]Gal(b1-4)GlcNAc(b1-3)GalNAc
Method in brief: as §1

[39] = target: Fuc(a1-2)[GalNAc(a1-3)]Gal(b1-4)GlcNAc(b1-3)[Fuc(a1-2)[GalNAc(a1-3)]Gal(b1-4)GlcNAc(b1-6)]GalNAc
Method in brief: as §1

[40] = target: Fuc(a1-2)[GalNAc(a1-3)]Gal(b1-4)GlcNAc(b1-6)GalNAc
Method in brief: as §1

[41] = target: Fuc(a1-2)[GalNAc(a1-3)]Gal(b1-4)[Fuc(a1-3)]GlcNAc
Method in brief: as §1

[42] = target: Fuc(a1-2)[GalNAc(a1-3)]Gal(b1-4)[Fuc(a1-3)]GlcNAc(b1-3)GalNAc
Method in brief: as §1

[43] = target: Fuc(a1-2)[GalNAc(a1-4)]Gal(b1-4)GlcNAc
Method in brief: as §1

CTAEGIKKFEGDGYELFKDNFPAGEKFDNDDTNDQFYTVIF [MUB40 (Lactobacillus reuteri)]
glycan array binding signal (z-score) [1]: -0.043
glycan array binding signal (z-score) [2]: -0.196
glycan array binding signal (z-score) (Fuc(a1-2)Gal6S(b1-4)Glc): 0.324
glycan array binding signal (z-score) [3]: 0.134
glycan array binding signal (z-score) (Fuc(a1-2)[Gal(a1-3)]Gal): -0.257
glycan array binding signal (z-score) [4]: -0.373
glycan array binding signal (z-score) [5]: -0.285
glycan array binding signal (z-score) [6]: -0.002
glycan array binding signal (z-score) [7]: -0.107
glycan array binding signal (z-score) [8]: -0.469
glycan array binding signal (z-score) [9]: -0.166
glycan array binding signal (z-score) [10]: 0.264
glycan array binding signal (z-score) [11]: -0.405
glycan array binding signal (z-score) [12]: -0.203
glycan array binding signal (z-score) [13]: 2.44
glycan array binding signal (z-score) [14]: -0.784
glycan array binding signal (z-score) [15]: -0.055
glycan array binding signal (z-score) [16]: -0.292
glycan array binding signal (z-score) [17]: -0.138
glycan array binding signal (z-score) [18]: -0.526
glycan array binding signal (z-score) [19]: -0.198
glycan array binding signal (z-score) [20]: -0.391
glycan array binding signal (z-score) [21]: 0.519
glycan array binding signal (z-score) [22]: -0.239
glycan array binding signal (z-score) [23]: -0.085
glycan array binding signal (z-score) [24]: 0.008
glycan array binding signal (z-score) [25]: -0.192
glycan array binding signal (z-score) [26]: -0.221
glycan array binding signal (z-score) [27]: 0.59
glycan array binding signal (z-score) [28]: -0.336
glycan array binding signal (z-score) [29]: -0.411
glycan array binding signal (z-score) [30]: -0.425
glycan array binding signal (z-score) [31]: -0.726
glycan array binding signal (z-score) [32]: 0.047
glycan array binding signal (z-score) [33]: 0.358
glycan array binding signal (z-score) [34]: -0.065
glycan array binding signal (z-score) [35]: 1.45
glycan array binding signal (z-score) [36]: -0.36
glycan array binding signal (z-score) [37]: -0.662
glycan array binding signal (z-score) [38]: -0.367
glycan array binding signal (z-score) [39]: 0.987
glycan array binding signal (z-score) [40]: 0.543
glycan array binding signal (z-score) [41]: -0.086
glycan array binding signal (z-score) [42]: 0.246
glycan array binding signal (z-score) [43]: -0.253
